± gives the standard deviation. This is a selection; strong and weak results do not stand in their true shares.
system: MIWI (PIWIL1) piRISC loaded with L1MC piRNA (30 nt); experiment: pre-steady-state target cleavage rate (min^-1); MIWI and MILI are mouse PIWI proteins and EfPiwi is from a freshwater sponge; tags in brackets are library labels; higher = faster piRNA-guided slicing of the target; conditions: guide: L1MC piRNA 5'p-UAACUAAAUACUAUGCAAGCUGUAGGUCCU; auxiliary factor: 500 nM mouse GTSF1
Outline: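 Cleave-'n-Seq used a transcribed, DNA-blocked target RNA library at 0.1 nM and active affinity-purified piRISC with one synthetic guide at 1 nM, with or without 500 nM GTSF1 partner protein, in HEPES–potassium acetate buffer at 33 °C for 0–8 or 0–960 min. Uncleaved targets were sequenced and normalised to depth and to weakly complementary targets, and three trials were pooled with k3 capped at 0.0001 min^-1. The pre-steady-state cleavage rate was estimated by a burst-and-steady-state fit.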

Sequence | pre-steady-state target cleavage rate
UCCUGGAUCAGCUUUGCAUAGUAUUUAGUUA | 1.05 ± 0.053
UCCUGGAUGUGCUUGCAUAGUUUUUAGUUA | 0.0222 ± 0.0075
UCCUGGAACAGCUUGCAUAGUAUUUAGUCUA | 0.0686 ± 0.012
ACCACCUACAGCUUGCAUAGUAUUUACAAA | 0.597 ± 0.077
UCCACCUUCAGCUUGCAUUGUAUUUAGUUA | 0.879 ± 0.025
UCCUCCUACAGCUUCCAUUGUAUUUAGUUA | 0.136 ± 0.018
UCCUGCUUCAGCUUGGAUAGUAUUUAGUUA | 1.18 ± 0.078
UCCUGGAACUGCUUGCAUAGUUUUUAGUUA | 0.161 ± 0.015
UCCUGGAUGUCCUUGCAUAGUAUUUAGCUUA | 0.0471 ± 0.0091
UCCUGGAUCAGCAUGCAUAGUAUUUACUUA | 0.313 ± 0.021
UGGUCCUACAGCAUGCAUAGUAUUUAGUUA | 1.19 ± 0.061
UCCACGUACAGCUUGCAUAGUAUUAAGUUA | 0.391 ± 0.026
UCCACCUACAGCUUGCAUAGUUAUUUAGUUA | 0.0679 ± 0.012
UGGACCUACUCCUUGCAUAGUAUUUACAAA | 0.0914 ± 0.018
AGGACGUACAGCUUGCAUAGUAUAUAGUUA | 0.713 ± 0.084
UCCUGGAACAGCAUGCAUAGUAUAUAGUUA | 0.756 ± 0.062
UCCACGUACAGCUAGCAUAGUAUUUAGUUA | 0.815 ± 0.028
UGGACCUACAGCUUGCAUAGUUAUUAGUUA | 0.146 ± 0.013
UCCUGGAUGUCCUUGCAUAGUAUUUAGUUA [g2:g19:cont:t1A] | 0.179 ± 0.021
UCCUCCUACAGCUUGCAUAGUUUUUACUUA | 0.122 ± 0.02

Sequence | pre-steady-state target cleavage rate
UCCUGCUACACCUUGCAUAGUAUUUAGAUA | 0.234 ± 0.053
UCGUCCUACAGCUUGCUUAGUAUUUAGUUA | 1.43 ± 0.047
UCCUGGAUGAGCUUGGAUAGUAAUUAGUUA | 0.27 ± 0.034
UCCUGCUACAGCUUGCAUAGUAUUUAGGUA | 0.26 ± 0.041
UCCUGGAUCAGCUUGCAUAGUAUAUUGUUA | 0.317 ± 0.025
UCGACCUUCAGCUUGCAUAGUUUUUAGUUA | 0.497 ± 0.024
UCGACCUACAGCUUGCAUAGAAUUUACUUA | 0.348 ± 0.045
AGGACCUACAGCUUGCAAAGUAUUUAGAUA | 0.582 ± 0.057
AGGAGCUACAGCUUGCAUAGUAAUUAGUUA | 0.892 ± 0.054
UCCUCCUACAGCUUGCAUAGUAAUUAGUAA | 0.347 ± 0.039
UCCUGGAUGUGUUUGCAUAGUAUUUAGUUA | 0.415 ± 0.033
UCCACGAUCAGCUUGCAUAGUAUUUUCAAA | 0.338 ± 0.033
AGGACCAACAGGUUGCAUAGUAUUUAGUUA | 1.2 ± 0.058
UCCUGGAUGACCUUGCAUAGUAUUUACUUA | 0.0931 ± 0.017
UCCUGGUACUGCUUGCAUAGUAUUUUGUUA | 0.153 ± 0.034
UCCACCUUCAGCUAGCAUAGUAUUUAGUUA | 1.03 ± 0.028
AGGACCUACAGCUUCCAUAGUAUUUAGUUA | 0.322 ± 0.066
AGGACGUACAGGUUGCAUAGUAUUUAGUUA | 1.03 ± 0.054
UGGACCUACAGCUUGCAAAGUUUUUAGUUA | 0.403 ± 0.022
UCCACCUAUAGCUUGCAUAGUAUUUAGUUA | 0.689 ± 0.026

From the supplement of paper PMC10338343
